# Experimental data taken from the RNAGym collection of RNA variant scans (doi:10.7554/elife.90254).
# The source gives no read counts; variants with many changes may rest on few reads.
# B1: LINE1-mini (parent)
# chain: GGCAGAGCUCAACACAGCGUGGCAAAGUGGCUGUGGCUAGACUGCC
# Variants of: B1
# Assay: self-cleavage, relative activity (ratio to wild type); higher = more cleavage; in vitro, sequencing; the parent is a self-cleaving ribozyme
row,Variant,self-cleavage
1,GGCAGAGCUCAACACAGCGUGGCAAAGAGGCUUUGGCUAUAGUGCC,0.08
2,GGCAGAGCUCAACACAGCGUGGCAAAGUAGCUUUGGUUAGACUGCC,0.06
3,GGCAGAGCUCAACACAGCGUGGCAAAGGCGCUGUGGCGAGACUGCC,0
4,GGCAGAGCUCAACACAGCGUGGCAAAGUAGCUGUCGCCAGACUGCG,0
5,GGCAGAGCUCAACACAGCGUGGCAAAGUAGCUCUGGCUUGUAUGCC,0.02
6,GGCAGAGCUCAACACAGCGUGGCAAAGGAACUGUGGCUAGGCUGCC,0.03
7,GGCAGAGCUCAACACAGCGUGGCAAAGCGGAUGUGGUUAGACUGCC,0.04
8,GGCAGAGCUCAACACAGCGUGGCAAAGCGGCUGUGGCUCUACCGCC,0.03
9,GGCAGAGCUCAACACAGCGUGGCAAAGGGCCUGUGACUUGACUGGC,0.01
10,GGCAGAGCUCAACACAGCGUGGCAAAGGGGCUGUGGCUCAACUGCC,0
11,GGCAGAGCUCAACACAGCGUGGCAAAGAGGCUCAGAGUAGGCUGCC,0.02
12,GGCAGAGCUCAACACAGCGUGGCAAAGUAUCCGUGGCUAGACUGCC,0.05
13,GGCAGAGCUCAACACAGCGUGGCAAAGUAGGUGUGGCUAGAUGGCC,0.09
14,GGCAGAGCUCAACACAGCGUGGCAAAGGGGCUAUGUCUAUACUGCC,0.04
15,GGCAGAGCUCAACACAGCGUGGCAAAGUAGCUGUGGAUAACCUGCC,0.06
16,GGCAGAGCUCAACACAGCGUGGCAAAGUAACUGUGGCUAUACUGCC,0.19
17,GGCAGAGCUCAACACAGCGUGGCAAAGUAGCUUUGGCUAUACUGGC,0.01
18,GGCAGAGCUCAACACAGCGUGGCAAAGGGGGAGUGGCUAGACUGCC,0.41
19,GGCAGAGCUCAACACAGCGUGGCAAAGCGGCUUUGGGUAAACUGCC,0.05
20,GGCAGAGCUCAACACAGCGUGGCAAAGGGGCUGUGGUUAGACUGAC,0.01
21,GGCAGAGCUCAACACAGCGUGGCAAAGGGGAUGUAGCUAGAGUGCC,0.04
22,GGCAGAGCUCAACACAGCGUGGCAAAGGGCCUGUGUCUAGACUGCC,0.22
23,GGCAGAGCUCAACACAGCGUGGCAAAGGGCCUGUGACUAGACUGCC,0.03

row,Variant,self-cleavage
1,GGCAGAGCUCAACACAGCGUGGCAAAGUAGCUGUUGCUAGCCUGCC,0.03
2,GGCAGAGCUCAACACAGCGUGGCAAAGAGGCUGGGGAUAGACUGCC,0
3,GGCAGAGCUCAACACAGCGUGGCAAAGUAUCUUUGGUUAGACUGCC,0.02
4,GGCAGAGCUCAACACAGCGUGGCAAAGGGGGUGUGGCUAGUCUGCC,0.05
5,GGCAGAGCUCAACACAGCGUGGCAAAGGGGCUGUUGCUUGACUGCC,0.04
6,GGCAGAGCUCAACACAGCGUGGCAAAGCUGCUCUGGCUAGACUGCC,0.05
7,GGCAGAGCUCAACACAGCGUGGCAAAGCUGCUGUGGCUAGACUGGC,0.3
8,GGCAGAGCUCAACACAGCGUGGCAAAGGAACUGUGGCUAGAUUGCC,0.07
9,GGCAGAGCUCAACACAGCGUGGCAAAGGGGCUUUGGCUAGACUGAC,0.01
10,GGCAGAGCUCAACACAGCGUGGCAAAGCGGCUGUGCCUAGAGUGCC,0.01
11,GGCAGAGCUCAACACAGCGUGGCAAAGGGGCUUUGUCUACACUGCC,0.03
12,GGCAGAGCUCAACACAGCGUGGCAAAGGGGCUGUGGCCAGCCUGCC,0.02
13,GGCAGAGCUCAACACAGCGUGGCAAAGGGGUUGUGGCUAUACCGCC,0
14,GGCAGAGCUCAACACAGCGUGGCAAAGUCGCUGUGGCUCGACUACC,0.03
15,GGCAGAGCUCAACACAGCGUGGCAAAGCGGCUCUGGCUAGACUGCG,0.02
16,GGCAGAGCUCAACACAGCGUGGCAAAGUAGAUGUGGUUAGACUGCC,0.13
17,GGCAGAGCUCAACACAGCGUGGCAAAGGGGCUGUGUAUAGACUGCC,0.05
18,GGCAGAGCUCAACACAGCGUGGCAAAGUAGUCGGGGCUAGACUGCC,0.05
19,GGCAGAGCUCAACACAGCGUGGCAAAGGCGCUGUGGCUAGAGUGCC,0.01
20,GGCAGAGCUCAACACAGCGUGGCAAAGGCGCUGUGGCUAGAUUGCC,0.08
21,GGCAGAGCUCAACACAGCGUGGCAAAGUAGCUGUGGCUAGUGUGUC,0.25
22,GGCAGAGCUCAACACAGCGUGGCAAAGUAGCUGUGGGUAGAUUGCC,0.09
23,GGCAGAGCUCAACACAGCGUGGCAAAGCGGCUUUAGCUAGACUGCC,0.08

row,Variant,self-cleavage
1,GGCAGAGCUCAACACAGCGUGGCAAAGAGGCUGUGUCUAGAUUGCC,0.07
2,GGCAGAGCUCAACACAGCGUGGCAAAGGGGCUGUGGAUAGACUGCU,0
3,GGCAGAGCUCAACACAGCGUGGCAAAGCGACUGUGCCUAGACUGCC,0.06
4,GGCAGAGCUCAACACAGCGUGGCAAAGCGGCUGUAGCUGGACUGCC,0.15
5,GGCAGAGCUCAACACAGCGUGGCAAAGCGGCUGUGGCUAGACUGUG,0.65
6,GGCAGAGCUCAACACAGCGUGGCAAAGCUGCUGUCGCUAGGCUGCC,0.03
7,GGCAGAGCUCAACACAGCGUGGCAAAGCGGCUGUGGCUGCACUGCC,0.04
8,GGCAGAGCUCAACACAGCGUGGCAAAGGGGCUGUGGCUAGACUGUA,0.15
9,GGCAGAGCUCAACACAGCGUGGCAAAGGGGAUGUGGUUAGACUCCC,0.11
10,GGCAGAGCUCAACACAGCGUGGCAAAGCGGCUCUGGCUAACCUGCC,0.01
11,GGCAGAGCUCAACACAGCGUGGCAAAGUAGAUGUUGCUGGACUGCC,0.02
12,GGCAGAGCUCAACACAGCGUGGCAAAGCGGGUGUGGCUACACUGCC,0
13,GGCAGAGCUCAACACAGCGUGGCAAAGGCCCUGUGGCUAGACUGCC,0.2
14,GGCAGAGCUCAACACAGCGUGGCAAAGUAGCUGUGGCUCUACUGCC,0.05
15,GGCAGAGCUCAACACAGCGUGGCAAAGGGACUGUGGCUAGACUGCA,0.27
16,GGCAGAGCUCAACACAGCGUGGCAAAGUAGCCGUCGCUAGACUGCC,0.04
17,GGCAGAGCUCAACACAGCGUGGCAAAGCGGUUGUCGCUAGACUACC,0.12
18,GGCAGAGCUCAACACAGCGUGGCAAAGUAGCUGUGGCUAUACUGUC,0.34
19,GGCAGAGCUCAACACAGCGUGGCAAAGUAGCUGUGGCUAGACGGAC,0.02
20,GGCAGAGCUCAACACAGCGUGGCAAAGCGGCUGUGGCUAUACCGCC,0.22
21,GGCAGAGCUCAACACAGCGUGGCAAAGUAGGUGUGGCUAGGCUGCC,0.02
22,GGCAGAGCUCAACACAGCGUGGCAAAGUAGCUGUGGCAAGGCUGCC,0.09
23,GGCAGAGCUCAACACAGCGUGGCAAAGUAACAGUGGUUAGACUGCC,0.01

row,Variant,self-cleavage
1,GGCAGAGCUCAACACAGCGUGGCAAAGCGUCUGUGGCUAGACUGUC,1.59
2,GGCAGAGCUCAACACAGCGUGGCAAAGGUGCUGUAGCUAGACUGCC,0.07
3,GGCAGAGCUCAACACAGCGUGGCAAAGAGGCAGUCGCUAGAAUGCC,0.02
4,GGCAGAGCUCAACACAGCGUGGCAAAGAGGCUACGGCUAGACUGCC,0.05
5,GGCAGAGCUCAACACAGCGUGGCAAAGAGGCUGUGUCUAAACGGUC,0.16
6,GGCAGAGCUCAACACAGCGUGGCAAAGAGUUUGUGGCUAGACUUCU,0.01
7,GGCAGAGCUCAACACAGCGUGGCAAAGUACCUGUGGCUAUACUUCC,0.11
8,GGCAGAGCUCAACACAGCGUGGCAAAGUAACUGUGGCUUGACUUCC,0.19
9,GGCAGAGCUCAACACAGCGUGGCAAAGGGGCUGUGGCUAUACUCCC,0.05
10,GGCAGAGCUCAACACAGCGUGGCAAAGCGGCUGUGGAUAGACUGUC,0.03
11,GGCAGAGCUCAACACAGCGUGGCAAAGGGCCUGUGGCUAGAGUGCC,0.01
12,GGCAGAGCUCAACACAGCGUGGCAAAGAGGCUGUAGCUAUACUGCC,0.1
13,GGCAGAGCUCAACACAGCGUGGCAAAGGGGCUGUGGAGAGACUGCC,0
14,GGCAGAGCUCAACACAGCGUGGCAAAGUAGCUGUGGCUAGCCUGCA,0.06
15,GGCAGAGCUCAACACAGCGUGGCAAAGCGGUUGUGGCUAGAUUGCC,0.29
16,GGCAGAGCUCAACACAGCGUGGCAAAGUAGCUGUGGCUUGACUGCG,0.08
17,GGCAGAGCUCAACACAGCGUGGCAAAGAGGCUGUAGCUGGACUGCC,0.05
18,GGCAGAGCUCAACACAGCGUGGCAAAGCUGGUAGGACUAGACUUCC,0.15
19,GGCAGAGCUCAACACAGCGUGGCAAAGGGACUGUGCCCAGACUGCC,0.03
20,GGCAGAGCUCAACACAGCGUGGCAAAGCCGUUGUGGCUAGACUGCC,0.4
21,GGCAGAGCUCAACACAGCGUGGCAAAGCCUCUGUGGCUAUACUGCC,0.02
22,GGCAGAGCUCAACACAGCGUGGCAAAGUAGCUGUAGCUGGUCUUCC,0.09
23,GGCAGAGCUCAACACAGCGUGGCAAAGAGGCUGUGGCUACACUGUC,0.15

row,Variant,self-cleavage
1,GGCAGAGCUCAACACAGCGUGGCAAAGAGGCUGUGGCUAGACUUCU,0.04
2,GGCAGAGCUCAACACAGCGUGGCAAAGCGGCUGUUGCUAAACUGCC,0.11
3,GGCAGAGCUCAACACAGCGUGGCAAAGGGGCCAUGGCUAGACUGUC,0.08
4,GGCAGAGCUCAACACAGCGUGGCAAAGGGGCUGUGGCUAGACCGAC,0.07
5,GGCAGAGCUCAACACAGCGUGGCAAAGUAGUUGUGGCUUGACUGCC,1.2
6,GGCAGAGCUCAACACAGCGUGGCAAAGCGGCUGUGGCUAGUCUGGC,0.04
7,GGCAGAGCUCAACACAGCGUGGCAAAGAGGCUGUAACUAGACUGCC,0.08
8,GGCAGAGCUCAACACAGCGUGGCAAAGGGGUUAUGGCUAGACAGCC,0
9,GGCAGAGCUCAACACAGCGUGGCAAAGGGGCUAUGGCUAGACUGCG,0.06
10,GGCAGAGCUCAACACAGCGUGGCAAAGCGGCUGUGUCAAGAUUGCC,0.03
11,GGCAGAGCUCAACACAGCGUGGCAAAGGGCCUGUGGCGAGACUGCC,0.01
12,GGCAGAGCUCAACACAGCGUGGCAAAGUAGCUGUGCCUAAACUGCC,0.16
13,GGCAGAGCUCAACACAGCGUGGCAAAGUAGCAGUGGCUGGACUGCC,0.02
14,GGCAGAGCUCAACACAGCGUGGCAAAGCGGAUCUGGCUCGACUGCC,0.03
15,GGCAGAGCUCAACACAGCGUGGCAAAGGGGCUGUGGCUCGACCGCU,0.03
16,GGCAGAGCUCAACACAGCGUGGCAAAGUAGAUGUGGCUACACUGCC,0.1
17,GGCAGAGCUCAACACAGCGUGGCAAAGAGUCUGUGGCUAGUCUGCC,0.13
18,GGCAGAGCUCAACACAGCGUGGCAAAGGGGCUGUGGAAAGACUGCU,0.01
19,GGCAGAGCUCAACACAGCGUGGCAAAGGUGCUGUGGCUAGAGUGCC,0.12
20,GGCAGAGCUCAACACAGCGUGGCAAAGGUGCUGUGGCUAGAAUGCC,0.08
